The record followed here is the supplement of paper PMC9446081.

Screen size: about 39,000 compounds; about 220 (0.56%) showed activity. Some of the results follow.
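Further: static incubation at 37 °C against the wild-type strain, values averaged over two biological replicates.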

The subject of this assay is Escherichia coli K-12 BW25113. Put plainly: relative growth (OD600 normalised to plate interquartile mean) (fraction); higher = less growth inhibition, active = 0.2 or less. The settings on record: 50 µM; LB; incubation time: overnight (16-24 h).
Consider `C[C@@H]1CN([C@@H](C)CO)S(=O)(=O)c2ccc(-c3cncnc3)cc2O[C@@H]1CN(C)C(=O)Cc1ccncc1`, for which the relative growth is inactive: 1.

Turning to `COc1ccc(CNC(=O)c2cc3c(c(-c4cccc(-c5ccc(C#N)cc5)c4)n2)[C@@H](CCO)N([S@](=O)C(C)(C)C)C3)cc1`, the relative growth is inactive: 1.01.

For the molecule `C[C@@H]1CCCCO[C@H](CN(C)C(=O)Nc2ccc(C(F)(F)F)cc2)[C@@H](C)CN([C@H](C)CO)C(=O)c2cc(NS(C)(=O)=O)ccc2O1`, the relative growth is inactive: 1.02.

As to `Cc1ccc(S(=O)(=O)Nc2ccc3c(c2)C(=O)N([C@H](C)CO)C[C@@H](C)[C@H](CN(C)C(=O)NC(C)C)O3)cc1`, the relative growth is inactive: 0.984.

For the molecule `C[C@@H]1CN([C@@H](C)CO)C(=O)c2cc(NS(=O)(=O)c3cccs3)ccc2O[C@@H](C)CCCCO[C@@H]1CN(C)S(=O)(=O)c1cn(C)cn1`, the relative growth is inactive: 0.991.

On to `C[C@@H]1CN([C@H](C)CO)C(=O)CCCn2cc(nn2)CO[C@@H]1CN(C)S(=O)(=O)c1ccc2ccccc2c1`, for which the relative growth was inactive: 0.992.

`COc1ccc(CN(C)C[C@@H]2Oc3ccc(NS(=O)(=O)c4c(C)noc4C)cc3CC(=O)N([C@@H](C)CO)C[C@@H]2C)cc1`: the relative growth was inactive: 0.994.

For the molecule `CC(C)(C)[S@](=O)N1Cc2cc(C(=O)NCCN3CCCCC3)nc(-c3cccc(-c4ccc(C#N)cc4)c3)c2[C@@H]1CCO`, the relative growth was inactive: 1.01.

Take `C[C@H](CO)N1C[C@H](C)[C@H](CN(C)Cc2ccc(C(=O)O)cc2)OCCCC[C@H](C)Oc2ccc(NC(=O)Cc3ccccc3)cc2C1=O`: the relative growth was inactive: 1.02.

On to `C[C@H](CO)N1C[C@H](C)[C@H](CN(C)Cc2ccc(C(F)(F)F)cc2)Oc2c(NC(=O)Nc3ccccc3)cccc2C1=O`, for which the relative growth is inactive: 1.03.

With `COCC#Cc1ccc2c(c1)O[C@H](CN(C)C(=O)c1ccccc1F)[C@H](C)CN([C@H](C)CO)S2(=O)=O`, the relative growth is inactive: 1.03.

For the molecule `CC1(C)CCC2=C(O1)c1ccccc1C(=O)C2=O` [beta-LAPACHONE], the relative growth is inactive: 1.14.

Consider `CO[C@H]1CN(C)C(=O)c2cc(NC(=O)C3CC3)ccc2OC[C@@H](C)N(C(=O)C2CCOCC2)C[C@H]1C`, for which the relative growth was inactive: 1.02.

For the molecule `C[C@H]1CCCCO[C@@H](CN(C)S(=O)(=O)c2ccc(F)cc2)[C@@H](C)CN([C@@H](C)CO)C(=O)c2cc(NC(=O)Nc3ccc(F)cc3)ccc2O1`, the relative growth is inactive: 1.05.

Take `C[C@H]1CCCCO[C@H](CN(C)S(=O)(=O)c2ccccc2)[C@@H](C)CN([C@@H](C)CO)C(=O)c2cc(NC(=O)Nc3ccc4c(c3)OCO4)ccc2O1`: the relative growth is inactive: 1.03.

In the case of `C[C@@H]1CCCCO[C@H](CN(C)C(=O)c2ccccc2)[C@@H](C)CN([C@H](C)CO)C(=O)c2cc(NC(=O)Nc3ccc(F)cc3)ccc2O1`, the relative growth is inactive: 1.02.

Regarding `CC(=O)Oc1ccc(O)cc1`, the relative growth is inactive: 0.927.

For `C[C@@H]1CCCCO[C@@H](CN(C)S(=O)(=O)c2ccccc2)[C@H](C)CN([C@H](C)CO)C(=O)c2cc(NC(=O)C3CCCCC3)ccc2O1`, the relative growth is inactive: 0.991.

Regarding `C[C@@H]1CN([C@H](C)CO)C(=O)Cc2cc(NC(=O)Cc3ccccc3)ccc2O[C@H]1CN(C)Cc1ccc(Oc2ccccc2)cc1`, the relative growth was inactive: 0.984.

With `Cc1ccc(S(=O)(=O)N(C)C[C@@H]2Oc3ccc(NC(=O)C4CC4)cc3CC(=O)N([C@@H](C)CO)C[C@H]2C)cc1`, the relative growth was inactive: 1.02.

For the molecule `C[C@@H]1CCCCO[C@H](CN(C)C(=O)Nc2cccc3ccccc23)[C@H](C)CN([C@@H](C)CO)C(=O)c2cc(NC(=O)Nc3ccccc3)ccc2O1`, the relative growth was inactive: 1.03.

Turning to `N[C@H]1CC[C@@H](CCn2cc(-c3ccccn3)nn2)O[C@H]1CO`, the relative growth was inactive: 1.02.

For `C[C@@H]1CN([C@@H](C)CO)C(=O)c2cc(C#CC3(O)CCCC3)cnc2O[C@H]1CN(C)S(C)(=O)=O`, the relative growth was inactive: 1.02.

On to `NS(=O)(=O)c1ccc(N2CCCC2=O)cc1`, for which the relative growth was inactive: 1.04.

With `COc1ccc(NC(=O)Nc2ccc3c(c2)CC(=O)N([C@H](C)CO)C[C@H](C)[C@H](CN(C)S(C)(=O)=O)O3)cc1`, the relative growth is inactive: 0.997.

Take `C[C@H](CO)N1C[C@H](C)[C@@H](CN(C)S(=O)(=O)c2ccccc2)Oc2ccc(NS(=O)(=O)c3cn(C)cn3)cc2CC1=O`: the relative growth is inactive: 1.01.

As for `C[C@@H]1CN([C@@H](C)CO)C(=O)c2cc(C#Cc3ccc(F)cc3)cnc2O[C@@H]1CN(C)Cc1ccccn1`, the relative growth is inactive: 0.995.

In the case of `c1nc2c(c(N3CCOCC3)n1)CCNCC2`, the relative growth is inactive: 1.05.

On to `Cc1ccc2nc(CN)[nH]c2c1`, for which the relative growth is inactive: 0.978.

Regarding `C[C@@H]1CN([C@@H](C)CO)C(=O)c2cc(NC(=O)CCCCCC(=O)Nc3ccccc3N)ccc2O[C@H]1CN(C)Cc1ccccc1`, the relative growth was inactive: 0.984.

As to `C[C@H](CO)N1C[C@H](C)[C@@H](CN(C)Cc2ccncc2)Oc2c(NC(=O)C3CCOCC3)cccc2C1=O`, the relative growth was inactive: 1.02.

With `C[C@@H]1CN([C@@H](C)CO)C(=O)c2cccc(NC(=O)C3CCOCC3)c2O[C@H]1CN(C)Cc1ccccc1`, the relative growth is inactive: 0.994.

Consider `C[C@@H]1CN([C@H](C)CO)C(=O)Cc2cc(NC(=O)Nc3ccc4c(c3)OCO4)ccc2O[C@H]1CN(C)Cc1ccc(C(F)(F)F)cc1`, for which the relative growth is inactive: 1.03.

On to `COc1ccccc1S(=O)(=O)N(C)C[C@@H]1OCc2cn(nn2)CCCC(=O)N([C@H](C)CO)C[C@H]1C`, for which the relative growth is inactive: 0.97.

Consider `C[C@@H]1CN([C@H](C)CO)C(=O)c2cc(NC(=O)CCCCCC(=O)Nc3ccccc3N)ccc2O[C@H]1CN(C)Cc1ccccc1`, for which the relative growth is inactive: 0.964.

Take `CC(=O)NC[C@H]1C[C@@H](N(C(C)=O)S(=O)(=O)c2cccc3cncc(C)c23)CN1`: the relative growth was inactive: 0.989.

Turning to `C[C@@H]1CCCCO[C@@H](CN(C)C(=O)Nc2ccc3c(c2)OCO3)[C@@H](C)CN([C@H](C)CO)C(=O)c2cc(NC(=O)Nc3ccc4c(c3)OCO4)ccc2O1`, the relative growth is inactive: 1.02.

In the case of `CO[C@H]1CN(C)C(=O)c2ccc(NS(=O)(=O)c3ccccc3)cc2OC[C@H](C)N(C(=O)NC(C)C)C[C@H]1C`, the relative growth is inactive: 0.968.

For the molecule `N[C@H](CSCCB(O)O)C(=O)O`, the relative growth was inactive: 1.04.

For `C[C@@H]1CCCCO[C@@H](CN(C)Cc2ccccc2)[C@@H](C)CN([C@@H](C)CO)C(=O)c2cc(NC(=O)CCC(F)(F)F)ccc2O1`, the relative growth was inactive: 0.989.

In the case of `C[C@@H]1CN([C@@H](C)CO)C(=O)c2cc(NC(=O)Nc3ccc(C(F)(F)F)cc3)ccc2O[C@H]1CN(C)CC1CCCCC1`, the relative growth is inactive: 0.968.

As for `O=C(CCCCCC(=O)Nc1ccccc1O)N/N=C/[C@H](O)[C@@H](O)[C@@H](O)[C@H](O)C(=O)O`, the relative growth was inactive: 0.996.

For `C[C@@H]1CN([C@H](C)CO)C(=O)c2cccc(NC(=O)C3CC3)c2O[C@@H]1CN(C)S(=O)(=O)c1ccc(F)cc1`, the relative growth is inactive: 1.

In the case of `Cc1ccc(S(=O)(=O)N(C)C[C@H]2OCCCC[C@H](C)Oc3ccc(NC(=O)Nc4ccc(C(F)(F)F)cc4)cc3C(=O)N([C@H](C)CO)C[C@H]2C)cc1`, the relative growth is inactive: 1.01.

As to `OCCCn1cnnc1`, the relative growth was inactive: 1.06.

Regarding `N[C@H]1CCCC[C@@H]1N1C(=O)CSC1=O`, the relative growth is inactive: 1.

For `CO[C@H]1CN(C)C(=O)c2cc(NS(=O)(=O)c3cn(C)cn3)ccc2OC[C@@H](C)N(CCC(F)(F)F)C[C@H]1C`, the relative growth is inactive: 0.995.

Regarding `C[C@]12CC[C@@H]3[C@]4(C=C[C@@]5(C=C4C(=O)C4CCCCC4)C[C@@H](O)CC[C@]35C)[C@@H]1CC[C@@]2(O)CN1CCC(n2c(=O)[nH]c3ccccc32)CC1`, the relative growth is inactive: 0.977.

Take `C[C@@H]1CN([C@H](C)CO)C(=O)c2cccc(NS(C)(=O)=O)c2O[C@@H]1CN(C)S(=O)(=O)c1ccc(Cl)cc1`: the relative growth was inactive: 0.979.

Take `CC(C)C#Cc1ccc2c(c1)O[C@H](CN(C)S(=O)(=O)c1cn(C)cn1)[C@H](C)CN([C@H](C)CO)S2(=O)=O`: the relative growth was inactive: 0.993.

As to `C[C@@H]1CN([C@@H](C)CO)C(=O)Cc2cc(NS(=O)(=O)c3cn(C)cn3)ccc2O[C@@H]1CN(C)C`, the relative growth was inactive: 1.02.

For `CC(=O)SCC(Cc1ccccc1)C(=O)NCC(=O)OCc1ccccc1` (stereo not given), the relative growth is inactive: 0.991.

On to `COc1ccc([Si](C)(C)[C@H]2[C@H](CCOC(=O)NCCCCCC(=O)NO)O[C@]3(C(=O)N(Cc4cccc(I)c4)c4ccccc43)[C@@H]2C)cc1`, for which the relative growth was inactive: 1.03.

For `C[C@@H]1CCCCO[C@H](CN(C)C(=O)C2CCCCC2)[C@@H](C)CN([C@@H](C)CO)C(=O)c2cc(NC(=O)c3ccccc3)ccc2O1`, the relative growth is inactive: 0.976.

For the molecule `C[C@@H]1CN([C@@H](C)CO)C(=O)Cc2cc(NC(=O)C3CCCCC3)ccc2O[C@H]1CN(C)Cc1ccc(Cl)c(Cl)c1`, the relative growth was inactive: 0.983.

Turning to `C[C@H]1CN([C@@H](C)CO)C(=O)Cc2cc(NS(=O)(=O)c3cn(C)cn3)ccc2O[C@@H]1CN(C)S(=O)(=O)c1ccc(F)cc1`, the relative growth was inactive: 0.981.

On to `COc1ccc([Si](C)(C)[C@@H]2[C@@H](CCO)O[C@]3(C(=O)N(Cc4ccccc4)c4ccc(N(C=O)c5ccccc5)cc43)[C@H]2C)cc1`, for which the relative growth is inactive: 1.02.

Consider `C[C@H](CO)N1C[C@H](C)[C@H](CN(C)C(=O)Nc2ccc(C(F)(F)F)cc2)Oc2c(NC(=O)Nc3ccccc3)cccc2C1=O`, for which the relative growth was inactive: 0.985.

Turning to `C[C@H]1CN([C@@H](C)CO)C(=O)c2cccc(NC(=O)c3ccc(-c4nccs4)cc3)c2O[C@@H]1CN(C)Cc1ccc(C(F)(F)F)cc1`, the relative growth was inactive: 1.03.

In the case of `Cc1ccc(S(=O)(=O)Nc2ccc3c(c2)C(=O)N([C@@H](C)CO)C[C@@H](C)[C@H](CN(C)C(=O)Nc2ccc4c(c2)OCO4)OCCCC[C@@H](C)O3)cc1`, the relative growth was inactive: 1.01.
